# Measured values reported in article PMC7819943, “Rice protein-binding microarrays: a tool to detect cis-acting elements near promoter regions in rice”.
# The other results are listed elsewhere or left out.
# Target: T1, OsWOX13 (Oryza sativa, UniProt Q5QMM3 1-267)
# T1 sequence: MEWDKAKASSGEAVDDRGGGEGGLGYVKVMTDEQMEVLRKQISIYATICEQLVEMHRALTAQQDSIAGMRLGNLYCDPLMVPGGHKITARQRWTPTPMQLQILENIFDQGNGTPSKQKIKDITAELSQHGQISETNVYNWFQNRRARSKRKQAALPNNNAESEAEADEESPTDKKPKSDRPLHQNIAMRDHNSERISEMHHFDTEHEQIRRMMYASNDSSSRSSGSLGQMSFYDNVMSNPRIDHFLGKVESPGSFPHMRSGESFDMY
# Experiment: protein-binding microarray (RPBM); PBS, 2% BSA, 51.3 ng/ul salmon testes DNA, 50 uM zinc acetate, 200 nM TF, 25 C, 1 h; high values mean tight binding
# Conditions: protein: recombinant; tags: N-terminal polyhistidine and DsRed monomer fusion (pET32a); label: CyDye5-dUTP incorporated in the synthesized complementary strand; 3' TTTTT single-stranded linker to array surface; dsDNA, one strand shown
# Summary of the method: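 Binding signal is reported as fluorescence intensity per feature (arbitrary units) from an Axon 4000B scanner. Incubation used 200 nM of each Ni–NTA-purified, N-terminally polyhistidine- and DsRed-fused transcription factor from E. coli BL21-CodonPlus on a double-stranded custom Agilent array for 1 h at 25 °C, with 50 µM zinc acetate in the buffer, followed by washing.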
row,Sequence,binding signal
1,TTGATCAAATTGCCACGCAGACACCACGTCAGCCAAAACCCGGAGTCACCTAGTGCAG,5010 fluorescence intensity (a.u.)
2,AATTAATAAAATAAATCTATTACAGTTAACTAAAGGTATTCGGAGTCACCTAGTGCAG,5780 fluorescence intensity (a.u.)
3,ACTAATTACACAGTACGCCAGGAAATTGCGAGACGAACCTCGGAGTCACCTAGTGCAG,23100 fluorescence intensity (a.u.)
4,TCTAATAAATTTAAGGATATACAGGTTCAAGTAATACGCCCGGAGTCACCTAGTGCAG,9660 fluorescence intensity (a.u.)
5,ATAATTACATTTGTTGGCCCATAACGAGTTCTTTCACAATCGGAGTCACCTAGTGCAG,4260 fluorescence intensity (a.u.)
6,CTTTCCAATTTGTTTAATTACCTGCTAACTTTGCTGCATCCGGAGTCACCTAGTGCAG,14300 fluorescence intensity (a.u.)
7,GGGTAGACTTAGACTGACATGGGAGTTGGAAAATGAATTGCGGAGTCACCTAGTGCAG,3340 fluorescence intensity (a.u.)
8,TAACTAATTTTGACCGGGTAGCATATAGTTTTGGGCTTTTCGGAGTCACCTAGTGCAG,9950 fluorescence intensity (a.u.)
9,ATAATACTCAATTAAGAACCTGTTAATGGTTTTCCTTGCACGGAGTCACCTAGTGCAG,13600 fluorescence intensity (a.u.)
10,GTTTTGTTGTTGCCAGTTTAGTCAATTACACTCTACTGATCGGAGTCACCTAGTGCAG,3580 fluorescence intensity (a.u.)
11,TTACAATGGGATAGACATATTAATTATTCTCTCACACGAACGGAGTCACCTAGTGCAG,6490 fluorescence intensity (a.u.)
12,ATTGGGTAATCAATAATCCTTTCCTACTAGATTAATGTCTCGGAGTCACCTAGTGCAG,5090 fluorescence intensity (a.u.)
13,GATGAAACATTTGACATGAACTAAATTTTGTTCGGCAGTTCGGAGTCACCTAGTGCAG,5180 fluorescence intensity (a.u.)
14,TTTAATTTTAACATGAACTAAACACGCCCCTAACAAGCAGCGGAGTCACCTAGTGCAG,18400 fluorescence intensity (a.u.)
15,TAAACCTAATTAATCCATAATTAGAGAATGTTTACGGTAGCGGAGTCACCTAGTGCAG,27000 fluorescence intensity (a.u.)
16,ATAACTATTTAATAAATTAATAAATTTTAAGTAAAATCATCGGAGTCACCTAGTGCAG,7430 fluorescence intensity (a.u.)
17,TAGGATTTGACCATAGTAAATTAATTTGGAGGAATTGTTTCGGAGTCACCTAGTGCAG,3990 fluorescence intensity (a.u.)
18,TATTAACTTGAGATAATTGGACTCCTAATTACAGCTCGTGCGGAGTCACCTAGTGCAG,33300 fluorescence intensity (a.u.)
19,TTGATTATTGGGAAACGCTGAAATTCTATACGGAGGTTACCGGAGTCACCTAGTGCAG,11000 fluorescence intensity (a.u.)
20,TTGATTTTAGTTATATTGGCTTAGACTTTTGAGCCCATCCCGGAGTCACCTAGTGCAG,8920 fluorescence intensity (a.u.)
21,GGTTGGGACGTGGAGAGTTGTTTGTAGATCGAGTTGAAAGCGGAGTCACCTAGTGCAG,3700 fluorescence intensity (a.u.)

row,Sequence,binding signal
1,ACTTAGATTAATTACATATTCCGCTTGTAAACTGCGAGACCGGAGTCACCTAGTGCAG,42200 fluorescence intensity (a.u.)
2,ACCCATCAAATCACTGTATAACACTGTTTGACATTATTTCCGGAGTCACCTAGTGCAG,3840 fluorescence intensity (a.u.)
3,TTTAATTGGAATATAATCATGTGATATCTTGTTATAACGACGGAGTCACCTAGTGCAG,48600 fluorescence intensity (a.u.)
4,TTAAATAATTTTATTTTGTGGTGATGTTGGTTTGGTTATGCGGAGTCACCTAGTGCAG,17000 fluorescence intensity (a.u.)
5,AATAATTTATGGGCTTAAACAAACAAAGTACTTCTGAAATCGGAGTCACCTAGTGCAG,24800 fluorescence intensity (a.u.)
6,AACCAATCACACAGTCTGCATATAGATTACGAGACGAATCCGGAGTCACCTAGTGCAG,22200 fluorescence intensity (a.u.)
7,TTTGGATTGGGTTTGGTGGTTGGGTGGGAGGGAGGGAGCTCGGAGTCACCTAGTGCAG,18700 fluorescence intensity (a.u.)
8,AATTGCTGTTGATTTGCCACTACCACTCTCCCCAACAAGTCGGAGTCACCTAGTGCAG,6370 fluorescence intensity (a.u.)
9,TCATTGATGACGTGAATAATAATAAAAGATTAGGGCTTAACGGAGTCACCTAGTGCAG,11800 fluorescence intensity (a.u.)
10,GTAAAATCAATCTCGGTTTACCATATGCTAGCGACAGAGACGGAGTCACCTAGTGCAG,6030 fluorescence intensity (a.u.)
11,CAGGATTAGCAAGTCATCTTACTATCTAATTAGGGCAGCACGGAGTCACCTAGTGCAG,7900 fluorescence intensity (a.u.)
12,GTAATTAACAGCAATCAGCAAGTGGCCTAATTGCCAACCTCGGAGTCACCTAGTGCAG,56700 fluorescence intensity (a.u.)
13,ACAGATTAGATTTCGATCACGTTTGAGGATCACAAAGTGACGGAGTCACCTAGTGCAG,8800 fluorescence intensity (a.u.)
14,ACTAAATTTTACGACCCTTCTCCACTAACATGAGCTCCTCCGGAGTCACCTAGTGCAG,7820 fluorescence intensity (a.u.)
15,CCTTGGTTTTAATTAATTCAATTTCTCGCCTCTTTTCTTCCGGAGTCACCTAGTGCAG,10300 fluorescence intensity (a.u.)
16,TTTGAGACATGATTGCAAAATGTAATAGCCTATAACTTGACGGAGTCACCTAGTGCAG,16700 fluorescence intensity (a.u.)
17,AACTCTAAAATCACTTTTAAAATTTTAAATTTTGTCTACGCGGAGTCACCTAGTGCAG,3650 fluorescence intensity (a.u.)
18,TTGACAGTCTGTTCAACTAACCAACTGTGATGTTATCGATCGGAGTCACCTAGTGCAG,3570 fluorescence intensity (a.u.)
19,TCCTAAATTTAGGTTGAAGAGTTGGGACTAGAGTGGAGTTCGGAGTCACCTAGTGCAG,9060 fluorescence intensity (a.u.)
20,TTATGGTTGATTAAAATAGACGAAATGACCCACATCTTTACGGAGTCACCTAGTGCAG,7760 fluorescence intensity (a.u.)
21,AAAGCGCGTGATTGCCGAAGTGCCGGCCCACATAGGCCCACGGAGTCACCTAGTGCAG,12700 fluorescence intensity (a.u.)
